Reference: the supplement of paper PMC10126150
Sequences with one replicate were seen in a single cluster, so their values are uncertain.

Tested on: ATP
Test: switch fluorescence ratio, 500 uM ATP over buffer (Cy3 cluster intensity, sum of 5 cycles each) (fold (ratio)); higher = stronger signal-on switching upon ATP binding; sequences stand for … in TCGTCGGCAGCGTCAGATGTGTATAAGAGACAGTTTTTTTTTTTTTTTTTTTTTTTTT…TC
Settings: aptamer strand: ATP DNA aptamer (quencher-CACCTGGGGGAGTATTGCGGAGGAAGG + anchor), 100 nM annealed; ATP concentration: 500 uM; one replicate
Summary of the method: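 Five buffer/ATP imaging cycles were run on Cy3-labelled switching-strand clusters on a modified Illumina MiSeq flow-cell, with NaOH stripping and re-annealing between cycles. In each cycle, clusters annealed to 100 nM quencher-labelled ATP aptamer were imaged in selection buffer, then after 15 min with 500 uM ATP at 22 °C. Per cluster, the fluorescence ratio is summed target-cycle over summed buffer-cycle Cy3 intensity, averaged per switch-domain sequence. Only clusters within 100-1000 RFU were kept.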
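Also: ATP exposure 15 min at 22 °C before imaging.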

## ACAAACAGGG
  switch fluorescence ratio: 1.25

## ATGGCCACTG
  switch fluorescence ratio: 1.03

## ACGTCGCTGT
  switch fluorescence ratio: 1.02

## CGGTAAACCG
  switch fluorescence ratio: 0.987

## ACTTTGTGCG
  switch fluorescence ratio: 1.06

## TGTGTAGGGT
  switch fluorescence ratio: 1.02

## ATCAATGGTT
  switch fluorescence ratio: 0.982

## AGAGGAGGAC
  switch fluorescence ratio: 0.923

## AAGAGGAGGA
  switch fluorescence ratio: 1.02

## GTTATAGTCA
  switch fluorescence ratio: 0.962

## GGAACTTGTA
  switch fluorescence ratio: 0.991

## AAGCTTATTA
  switch fluorescence ratio: 1

## TGTAAAATTG
  switch fluorescence ratio: 1.02

## CCGGGTTAAC
  switch fluorescence ratio: 1.16

## TGGATGGGTG
  switch fluorescence ratio: 0.99

## TGGTGTCAGA
  switch fluorescence ratio: 1.04

## TTTCAGG
  switch fluorescence ratio: 1.01

## TCGGGCGCAC
  switch fluorescence ratio: 1.12

## CGAGAGGCGT
  switch fluorescence ratio: 1.02

## CACGCGGACA
  switch fluorescence ratio: 1.15

## GGAGCGAGTG
  switch fluorescence ratio: 1.01

## TGCGTGCAGG
  switch fluorescence ratio: 1.03

## GGACCAAGGG
  switch fluorescence ratio: 0.956

## AAATGTTTCG
  switch fluorescence ratio: 1.05

## ATACCGAGCT
  switch fluorescence ratio: 1.12

## TCGGATGTGT
  switch fluorescence ratio: 0.979

## TGGTAAAGAG
  switch fluorescence ratio: 0.995

## GAAGTTTAAC
  switch fluorescence ratio: 1.82

## CTGAAACATT
  switch fluorescence ratio: 1.05

## ATACCGGGGA
  switch fluorescence ratio: 0.958

## ATAGGCAGC
  switch fluorescence ratio: 1.02

## GGCTGGCAAG
  switch fluorescence ratio: 1.02

## TCTCACCGTT
  switch fluorescence ratio: 0.996

## ACTCATGGAC
  switch fluorescence ratio: 1.08

## GAATGTCACC
  switch fluorescence ratio: 1.06

## ATTGTACGAA
  switch fluorescence ratio: 1.05

## TTGGGCCTGC
  switch fluorescence ratio: 1.02

## TTACAATCGG
  switch fluorescence ratio: 1.01

## CTGGGCAGAT
  switch fluorescence ratio: 0.972

## GAGATAGCT
  switch fluorescence ratio: 0.995

## GGTTGTTTGC
  switch fluorescence ratio: 0.997

## TGTGGGTGAC
  switch fluorescence ratio: 0.998

## TGGTTCACAT
  switch fluorescence ratio: 1.02

## GGAATCTGCA
  switch fluorescence ratio: 1.07

## TATGTGAAAG
  switch fluorescence ratio: 1.03

## ATTGACAACT
  switch fluorescence ratio: 1.02

## AGTTTTCGCT
  switch fluorescence ratio: 0.973

## AGTTTCGCCC
  switch fluorescence ratio: 1.02

## TAACTGGTGA
  switch fluorescence ratio: 1.07

## ACATAATGA
  switch fluorescence ratio: 1.01

## CAAAGATATG
  switch fluorescence ratio: 1.05

## AACGTTTACC
  switch fluorescence ratio: 1.13

## AGTGCAAACC
  switch fluorescence ratio: 1.01

## GACTCTTTTC
  switch fluorescence ratio: 0.975

## ACTGAGGCAT
  switch fluorescence ratio: 1.11

## TTTGCGCTAA
  switch fluorescence ratio: 2.06

## GACCAGGCTG
  switch fluorescence ratio: 1.05

## GATAGATGGT
  switch fluorescence ratio: 0.987

## GCTACCTGTT
  switch fluorescence ratio: 1.05

## TTATGTATTC
  switch fluorescence ratio: 1.02

## GCACCACTTC
  switch fluorescence ratio: 0.978

## CTCTCGAGAG
  switch fluorescence ratio: 0.963

## TTCCCATCAC
  switch fluorescence ratio: 1.13

## TAGTATGCTC
  switch fluorescence ratio: 0.965

## GCACCCCCAA
  switch fluorescence ratio: 1.54

## CATATATAAA
  switch fluorescence ratio: 0.979

## TAAGTAATCG
  switch fluorescence ratio: 1.08

## CAGACTGGTG
  switch fluorescence ratio: 1.02

## TTCTAGATAG
  switch fluorescence ratio: 0.976

## GTACCTGCCT
  switch fluorescence ratio: 1.54

## GGTCACTACA
  switch fluorescence ratio: 0.999

## CTCTTGTATA
  switch fluorescence ratio: 1.04

## TATAAGAGC
  switch fluorescence ratio: 0.982

## ATTTAGCGGC
  switch fluorescence ratio: 0.928

## CAGTTAGGCG
  switch fluorescence ratio: 0.978

## CGGTGATAGT
  switch fluorescence ratio: 1.02

## CCTATGTCTA
  switch fluorescence ratio: 1.17

## CTGGGGTCCT
  switch fluorescence ratio: 0.977

## TCGGGATTCC
  switch fluorescence ratio: 1.78

## TTTACAGGCG
  switch fluorescence ratio: 1.01

## TAAGTACAAT
  switch fluorescence ratio: 1.26

## AAGGGGGTGC
  switch fluorescence ratio: 1

## GAAATCGGAA
  switch fluorescence ratio: 1.01

## TATATTGCTC
  switch fluorescence ratio: 1.01

## TCAAATTTAC
  switch fluorescence ratio: 1.14

## CGTCGTTAAC
  switch fluorescence ratio: 1.14

## CCGTATACTG
  switch fluorescence ratio: 1.19

## GGGCCACCGT
  switch fluorescence ratio: 1

## CATGCTGACC
  switch fluorescence ratio: 1.03

## AACCCAATT
  switch fluorescence ratio: 1.05

## CCGTGGTGAA
  switch fluorescence ratio: 1.06

## GGTCCAACGT
  switch fluorescence ratio: 1.04

## GGTGTGTTGA
  switch fluorescence ratio: 1.04

## TTGGTATTGG
  switch fluorescence ratio: 0.943

## AGTTTACCTC
  switch fluorescence ratio: 1.02

## TATCTCGGCG
  switch fluorescence ratio: 0.996

## TGATCGGCAT
  switch fluorescence ratio: 1.01

## ATTCTGAACT
  switch fluorescence ratio: 1.01

## TAATGGCTA
  switch fluorescence ratio: 0.987

## AGAATGCAGG
  switch fluorescence ratio: 0.953

## GTAGGAACAC
  switch fluorescence ratio: 1.34

## TGATAGCGGT
  switch fluorescence ratio: 1

## CTGGCGTGAT
  switch fluorescence ratio: 1.06

## GACGATGTTC
  switch fluorescence ratio: 1.08

## CACTGGAAC
  switch fluorescence ratio: 1.22

## GTGGTCTGGG
  switch fluorescence ratio: 0.996

## GAGTATGGAG
  switch fluorescence ratio: 1.02

## TGGGGCAGAA
  switch fluorescence ratio: 0.993

## TGGGAACGTT
  switch fluorescence ratio: 1.03

## CTTTAAGGCT
  switch fluorescence ratio: 0.99

## TTACGACTTT
  switch fluorescence ratio: 1.04

## GTTGATCCGG
  switch fluorescence ratio: 1.03

## GCAATGAAGG
  switch fluorescence ratio: 1.1

## TATTTACGGT
  switch fluorescence ratio: 1.53

## TAGTTTAGGA
  switch fluorescence ratio: 1

## TGGGCTGGTG
  switch fluorescence ratio: 1

## TGCCGTGGGG
  switch fluorescence ratio: 0.972

## ATAGTGTTGT
  switch fluorescence ratio: 0.922

## ACCAGTC
  switch fluorescence ratio: 0.968

## GTAGCACAGA
  switch fluorescence ratio: 1.09

## TGTTTCAGGA
  switch fluorescence ratio: 0.999

## TAAGCGACCT
  switch fluorescence ratio: 1.31

## ACTGTCACGG
  switch fluorescence ratio: 1.3

## CTTTCAGTTT
  switch fluorescence ratio: 0.971

## AGGATGTGAT
  switch fluorescence ratio: 0.968

## ACTGGTATGA
  switch fluorescence ratio: 1.05

## CGTAGGTGGG
  switch fluorescence ratio: 0.986

## TCGCGGCTAC
  switch fluorescence ratio: 4.79

## TCTGCGAGC
  switch fluorescence ratio: 1.04

## TTCGCTGAT
  switch fluorescence ratio: 2.81

## TCCTTTATAA
  switch fluorescence ratio: 1.04

## ATATCGGGAG
  switch fluorescence ratio: 1.03

## TGCCGAGTTG
  switch fluorescence ratio: 1.01

## TGAAACATCT
  switch fluorescence ratio: 1.01

## TGTCTGACGG
  switch fluorescence ratio: 1.01

## TTGACCTAAG
  switch fluorescence ratio: 0.969

## GAGGGCAAGA
  switch fluorescence ratio: 1.08

## AGGCTTATTG
  switch fluorescence ratio: 0.95

## CCTGGACGCC
  switch fluorescence ratio: 1.06

## AGTTGTATGA
  switch fluorescence ratio: 1.02

## TAAGTTTAAT
  switch fluorescence ratio: 0.967

## TCCGTGAGAC
  switch fluorescence ratio: 3.69

## GACATAGGGG
  switch fluorescence ratio: 1.01

## ATTCTCTGTA
  switch fluorescence ratio: 0.995

## TTTTCTCAGT
  switch fluorescence ratio: 0.97

## TAAAACGTCG
  switch fluorescence ratio: 1.01

## TAAAAGCGAT
  switch fluorescence ratio: 1

## AACTAGTCCA
  switch fluorescence ratio: 0.994

## ATGGTTTTTC
  switch fluorescence ratio: 1.04

## ACGTGTCAGA
  switch fluorescence ratio: 1.08

## ATGGTACAGT
  switch fluorescence ratio: 0.995

## GATTTAATGT
  switch fluorescence ratio: 0.976

## GATGGTGTAC
  switch fluorescence ratio: 1.08

## TAAACCCGTT
  switch fluorescence ratio: 1.07

## ATCGTTGGTC
  switch fluorescence ratio: 0.937

## TATTTCGGG
  switch fluorescence ratio: 0.978

## AAAAGCCGAT
  switch fluorescence ratio: 0.973
